The supplement of paper PMC8728848
The list shows a part of the results.

Legend:
Test in all cases: glycan array binding signal (z-score within array); higher = stronger binding
Conditions in all cases: glycan notation: IUPAC condensed, linker removed
[1] = biological target: GlcNAc(b1-2)[GlcNAc(b1-4)]Man(a1-3)[GlcNAc(b1-4)][GlcNAc(b1-2)[GlcNAc(b1-6)]Man(a1-6)]Man(b1-4)GlcNAc(b1-4)GlcNAc
How it was run: (§1)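 Glycan array data came from 3228 arrays in the Consortium for Functional Glycomics database, and only arrays with an available protein sequence were kept. Glycan names were put into IUPAC-condensed notation, and columns mapping to the same glycan were averaged. The binding signal is a within-array Z-score, averaged across arrays of one protein sequence run at different concentrations or buffers and across linkers. A negative Z-score can be read as non-binding.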

[2] = biological target: GlcNAc(b1-2)[GlcNAc(b1-4)]Man(a1-3)[GlcNAc(b1-4)][GlcNAc(b1-2)[GlcNAc(b1-6)]Man(a1-6)]Man(b1-4)GlcNAc(b1-4)[Fuc(a1-6)]GlcNAc
How it was run: as §1

[3] = biological target: GlcNAc(b1-2)[GlcNAc(b1-6)]Man(a1-6)[GlcNAc(b1-2)Man(a1-3)]Man(b1-4)GlcNAc(b1-4)GlcNAc
How it was run: as §1

[4] = biological target: GlcNAc(b1-2)[GlcNAc(b1-6)]Man(a1-6)[GlcNAc(b1-2)Man(a1-3)]Man(b1-4)GlcNAc(b1-4)[Fuc(a1-6)]GlcNAc
How it was run: as §1

[5] = biological target: GlcNAc(b1-2)[GlcNAc(b1-6)]Man(a1-6)[GlcNAc(b1-4)][GlcNAc(b1-2)Man(a1-3)]Man(b1-4)GlcNAc(b1-4)GlcNAc
How it was run: as §1

GlcNAc(b1-3)Fuc = biological target: GlcNAc(b1-3)Fuc
How it was run: as §1

GlcNAc(b1-3)Gal = biological target: GlcNAc(b1-3)Gal
How it was run: as §1

[6] = biological target: GlcNAc(b1-3)Gal(b1-3)GalNAc
How it was run: as §1

GlcNAc(b1-3)Gal(b1-4)Glc = biological target: GlcNAc(b1-3)Gal(b1-4)Glc
How it was run: as §1

[7] = biological target: GlcNAc(b1-3)Gal(b1-4)GlcNAc
How it was run: as §1

[8] = biological target: GlcNAc(b1-3)Gal(b1-4)GlcNAc(b1-2)Man(a1-3)[GlcNAc(b1-3)Gal(b1-4)GlcNAc(b1-2)Man(a1-6)]Man(b1-4)GlcNAc(b1-4)GlcNAc
How it was run: as §1

[9] = biological target: GlcNAc(b1-3)Gal(b1-4)GlcNAc(b1-2)Man(a1-3)[GlcNAc(b1-3)Gal(b1-4)GlcNAc(b1-2)Man(a1-6)]Man(b1-4)GlcNAc(b1-4)[Fuc(a1-6)]GlcNAc
How it was run: as §1

[10] = biological target: GlcNAc(b1-3)Gal(b1-4)GlcNAc(b1-2)[GlcNAc(b1-3)Gal(b1-4)GlcNAc(b1-6)]Man(a1-6)[GlcNAc(b1-3)Gal(b1-4)GlcNAc(b1-2)Man(a1-3)]Man(b1-4)GlcNAc(b1-4)GlcNAc
How it was run: as §1

[11] = biological target: GlcNAc(b1-3)Gal(b1-4)GlcNAc(b1-3)Gal(b1-4)GlcNAc
How it was run: as §1

[12] = biological target: GlcNAc(b1-3)Gal(b1-4)GlcNAc(b1-3)Gal(b1-4)GlcNAc(b1-2)Man(a1-3)[GlcNAc(b1-3)Gal(b1-4)GlcNAc(b1-3)Gal(b1-4)GlcNAc(b1-2)Man(a1-6)]Man(b1-4)GlcNAc(b1-4)GlcNAc
How it was run: as §1

[13] = biological target: GlcNAc(b1-3)Gal(b1-4)GlcNAc(b1-3)Gal(b1-4)GlcNAc(b1-2)Man(a1-3)[GlcNAc(b1-3)Gal(b1-4)GlcNAc(b1-3)Gal(b1-4)GlcNAc(b1-2)Man(a1-6)]Man(b1-4)GlcNAc(b1-4)[Fuc(a1-6)]GlcNAc
How it was run: as §1

[14] = biological target: GlcNAc(b1-3)Gal(b1-4)GlcNAc(b1-3)Gal(b1-4)GlcNAc(b1-2)[GlcNAc(b1-3)Gal(b1-4)GlcNAc(b1-3)Gal(b1-4)GlcNAc(b1-6)]Man(a1-6)[GlcNAc(b1-3)Gal(b1-4)GlcNAc(b1-3)Gal(b1-4)GlcNAc(b1-2)Man(a1-3)]Man(b1-4)GlcNAc(b1-4)[Fuc(a1-6)]GlcNAc
How it was run: as §1

[15] = biological target: GlcNAc(b1-3)Gal(b1-4)GlcNAc(b1-3)Gal(b1-4)GlcNAc(b1-3)Gal(b1-4)GlcNAc(b1-2)Man(a1-3)[GlcNAc(b1-3)Gal(b1-4)GlcNAc(b1-3)Gal(b1-4)GlcNAc(b1-3)Gal(b1-4)GlcNAc(b1-2)Man(a1-6)]Man(b1-4)GlcNAc(b1-4)GlcNAc
How it was run: as §1

[16] = biological target: GlcNAc(b1-3)Gal(b1-4)GlcNAc(b1-3)Gal(b1-4)GlcNAc(b1-3)Gal(b1-4)GlcNAc(b1-2)Man(a1-3)[GlcNAc(b1-3)Gal(b1-4)GlcNAc(b1-3)Gal(b1-4)GlcNAc(b1-3)Gal(b1-4)GlcNAc(b1-2)Man(a1-6)]Man(b1-4)GlcNAc(b1-4)[Fuc(a1-6)]GlcNAc
How it was run: as §1

[17] = biological target: GlcNAc(b1-3)Gal(b1-4)GlcNAc(b1-3)Gal(b1-4)GlcNAc(b1-3)Gal(b1-4)GlcNAc(b1-2)[GlcNAc(b1-3)Gal(b1-4)GlcNAc(b1-3)Gal(b1-4)GlcNAc(b1-3)Gal(b1-4)GlcNAc(b1-6)]Man(a1-6)[GlcNAc(b1-3)Gal(b1-4)GlcNAc(b1-3)Gal(b1-4)GlcNAc(b1-3)Gal(b1-4)GlcNAc(b1-2)Man(a1-3)]Man(b1-4)GlcNAc(b1-4)[Fuc(a1-6)]GlcNAc
How it was run: as §1

[18] = biological target: GlcNAc(b1-3)Gal(b1-4)GlcNAc(b1-3)Gal(b1-4)GlcNAc(b1-3)Gal(b1-4)GlcNAc(b1-3)Gal(b1-4)GlcNAc(b1-2)Man(a1-3)[GlcNAc(b1-3)Gal(b1-4)GlcNAc(b1-3)Gal(b1-4)GlcNAc(b1-3)Gal(b1-4)GlcNAc(b1-3)Gal(b1-4)GlcNAc(b1-2)Man(a1-6)]Man(b1-4)GlcNAc(b1-4)GlcNAc
How it was run: as §1

[19] = biological target: GlcNAc(b1-3)Gal(b1-4)GlcNAc(b1-3)Gal(b1-4)GlcNAc(b1-3)Gal(b1-4)GlcNAc(b1-3)Gal(b1-4)GlcNAc(b1-2)Man(a1-3)[GlcNAc(b1-3)Gal(b1-4)GlcNAc(b1-3)Gal(b1-4)GlcNAc(b1-3)Gal(b1-4)GlcNAc(b1-3)Gal(b1-4)GlcNAc(b1-2)Man(a1-6)]Man(b1-4)GlcNAc(b1-4)[Fuc(a1-6)]GlcNAc
How it was run: as §1

[20] = biological target: GlcNAc(b1-3)Gal(b1-4)GlcNAc(b1-3)Gal(b1-4)GlcNAc(b1-3)Gal(b1-4)GlcNAc(b1-3)Gal(b1-4)GlcNAc(b1-2)[GlcNAc(b1-3)Gal(b1-4)GlcNAc(b1-3)Gal(b1-4)GlcNAc(b1-3)Gal(b1-4)GlcNAc(b1-3)Gal(b1-4)GlcNAc(b1-6)]Man(a1-6)[GlcNAc(b1-3)Gal(b1-4)GlcNAc(b1-3)Gal(b1-4)GlcNAc(b1-3)Gal(b1-4)GlcNAc(b1-3)Gal(b1-4)GlcNAc(b1-2)Man(a1-3)]Man(b1-4)GlcNAc(b1-4)[Fuc(a1-6)]GlcNAc
How it was run: as §1

B1: OGAN (protein)
chain: MVQKESQATLEERESELSSNPAASAGASLEPPAAPAPGEDNPAGAGGAAVAGAAGGARRFLCGVVEGFYGRPWVMEQRKELFRRLQKWELNTYLYAPKDDYKHRMFWREMYSVEEAEQLMTLISAAREYEIEFIYAISPGLDITFSNPKEVSTLKRKLDQVSQFGCRSFALLFNDIDHNMCAADKEVFSSFAHAQVSITNEIYQYLGEPETFLFCPTEYCGTFCYPNVSQSPYLRTVGEKLLPGIEVLWTGPKVVSKEIPVESIEEVSKIIKRAPVIWDNIHANDYDQKRLFLGPYKGRSTELIPRLKGVLTNPNCEFEANYVAIHTLATWYKSNMNGVRKDVVMTDSEDSTVSIQIKLENEGSDEDIETDVLYSPQMALKLALTEWLQEFGVPHQY
- glycan array binding signal (z-score) [1]: -0.049
- glycan array binding signal (z-score) [2]: -0.072
- glycan array binding signal (z-score) [3]: -0.089
- glycan array binding signal (z-score) [4]: -0.052
- glycan array binding signal (z-score) [5]: -0.067
- glycan array binding signal (z-score) (GlcNAc(b1-3)Fuc): -0.056
- glycan array binding signal (z-score) (GlcNAc(b1-3)Gal): -0.081
- glycan array binding signal (z-score) [6]: -0.035
- glycan array binding signal (z-score) (GlcNAc(b1-3)Gal(b1-4)Glc): -0.043
- glycan array binding signal (z-score) [7]: -0.063
- glycan array binding signal (z-score) [8]: -0.058
- glycan array binding signal (z-score) [9]: -0.025
- glycan array binding signal (z-score) [10]: -0.038
- glycan array binding signal (z-score) [11]: -0.055
- glycan array binding signal (z-score) [12]: -0.043
- glycan array binding signal (z-score) [13]: -0.018
- glycan array binding signal (z-score) [14]: -0.073
- glycan array binding signal (z-score) [15]: 0.013
- glycan array binding signal (z-score) [16]: -0.016
- glycan array binding signal (z-score) [17]: -0.012
- glycan array binding signal (z-score) [18]: -0.074
- glycan array binding signal (z-score) [19]: -0.071
- glycan array binding signal (z-score) [20]: 0.044
